At least one read-out could not be matched to a standard name with certainty.
Tests used:
[1] = system: Echinochloa crug-galli; assay: Biological Test 1 (soaking in water/treatment on the 3rd day after transplantation): weed-killing effect on barnyard grass; assay type: in vivo, Echinochloa crus-galli; settings: Treatment performed 3 days after transplantation
[2] = system: Scirups juncoides; assay: Biological Test 1 (soaking in water/treatment on the 3rd day after transplantation): weed-killing effect on Scirups juncoides; assay type: in vivo, Scirpus juncoides; settings: Treatment performed 3 days after transplantation
[3] = system: Echinochloa crug-galli; assay: Biological Test 2 (soaking in water/treatment on the 10th day after transplantation): weed-killing effect on barnyard grass; assay type: in vivo, Echinochloa crus-galli; settings: Treatment performed 10 days after transplantation
[4] = system: Scirups juncoides; assay: Biological Test 2 (soaking in water/treatment on the 10th day after transplantation): weed-killing effect on Scirups juncoides; assay type: in vivo, Scirpus juncoides; settings: Treatment performed 10 days after transplantation

SMILES	Weed-killing effect, Echinochloa crug-galli ([1]; dose 100 g/ha)	Weed-killing effect, Echinochloa crug-galli ([1]; dose 200 g/ha)	Weed-killing effect, Scirups juncoides ([2]; dose 100 g/ha)	Weed-killing effect, Scirups juncoides ([2]; dose 200 g/ha)	Weed-killing effect, Echinochloa crug-galli ([3]; dose 100 g/ha)	Weed-killing effect, Echinochloa crug-galli ([3]; dose 200 g/ha)	Weed-killing effect, Scirups juncoides ([4]; dose 100 g/ha)	Weed-killing effect, Scirups juncoides ([4]; dose 200 g/ha)
CC(C)(C)S(=O)(=O)C1=C(C(=O)c2ccc3c(c2Cl)CCS3(=O)=O)C(=O)CCC1 [B-39]	5 (90% or more (almost completely withered))	5 (90% or more (almost completely withered))	5 (90% or more (almost completely withered))	5 (90% or more (almost completely withered))	4 (70% or more and less than 90%)	5 (90% or more (almost completely withered))	5 (90% or more (almost completely withered))	5 (90% or more (almost completely withered))
O=C1CCCC(S(=O)(=O)Cc2ccccc2)=C1C(=O)c1ccc2c(c1Cl)CCS2(=O)=O [B-40]	4 (70% or more and less than 90%)	5 (90% or more (almost completely withered))	4 (70% or more and less than 90%)	5 (90% or more (almost completely withered))	3 (40% or more and less than 70%)	5 (90% or more (almost completely withered))	4 (70% or more and less than 90%)	5 (90% or more (almost completely withered))
O=C1CCCC(S(=O)(=O)c2ccc(Br)cc2)=C1C(=O)c1ccc2c(c1Cl)CCS2(=O)=O [B-42]	4 (70% or more and less than 90%)	4 (70% or more and less than 90%)	4 (70% or more and less than 90%)	5 (90% or more (almost completely withered))	3 (40% or more and less than 70%)	4 (70% or more and less than 90%)	4 (70% or more and less than 90%)	5 (90% or more (almost completely withered))
O=C1CCCC(S(=O)(=O)c2ccc(O)cc2)=C1C(=O)c1ccc2c(c1Cl)CCS2(=O)=O [B-43]	4 (70% or more and less than 90%)	4 (70% or more and less than 90%)	4 (70% or more and less than 90%)	5 (90% or more (almost completely withered))	3 (40% or more and less than 70%)	4 (70% or more and less than 90%)	4 (70% or more and less than 90%)	5 (90% or more (almost completely withered))
COC(=O)c1ccccc1S(=O)(=O)C1=C(C(=O)c2ccc3c(c2Cl)CCS3(=O)=O)C(=O)CCC1 [B-44]	3 (40% or more and less than 70%)	4 (70% or more and less than 90%)	4 (70% or more and less than 90%)	5 (90% or more (almost completely withered))	3 (40% or more and less than 70%)	4 (70% or more and less than 90%)	4 (70% or more and less than 90%)	4 (70% or more and less than 90%)
CC(=O)c1ccc(SC2=C(C(=O)c3ccc4c(c3Cl)CCS4(=O)=O)C(=O)CCC2)cc1 [B-45, 4-chloro-5-[3-(4-acetylphenyl)thio-1-oxocyclohexan-2-yl]carbonyl-2,3-dihydrobenzothiophene-1,1-dioxide]	3 (40% or more and less than 70%)	4 (70% or more and less than 90%)	4 (70% or more and less than 90%)	5 (90% or more (almost completely withered))	3 (40% or more and less than 70%)	4 (70% or more and less than 90%)	4 (70% or more and less than 90%)	5 (90% or more (almost completely withered))
CC(=O)c1ccc(S(=O)(=O)C2=C(C(=O)c3ccc4c(c3Cl)CCS4(=O)=O)C(=O)CCC2)cc1 [B-46]	4 (70% or more and less than 90%)	4 (70% or more and less than 90%)	4 (70% or more and less than 90%)	5 (90% or more (almost completely withered))	3 (40% or more and less than 70%)	4 (70% or more and less than 90%)	4 (70% or more and less than 90%)	5 (90% or more (almost completely withered))

Source: patent US20040002425A1, “Triketone derivatives and herbicides” (Idemitsu Kosan Co., Ltd., priority 1998, published 2004)
